Laboratory results from the RNAGym collection of RNA variant scans (doi:10.7554/elife.90254).
The source gives no read counts; variants with many changes may rest on few reads.

B1: LINE1-full (parent)
chain: UACGUAGGUGGUUUUCCCCUGAUAGUGCUAAGGGGGCCUGGAAGUUUGGACUGGGCAGAGCUCAACACAGCGUGGCAAAGUGGCUGUGGCUAGACUGCCUCUCUGGAUUCCUCGUCACUCAGCAGGGCAUCUCUGAGAGAAAUGCC

Variants of: B1
Assay: self-cleavage, relative activity (ratio to wild type); higher = more cleavage; in vitro, sequencing; the parent is a self-cleaving ribozyme

Variant | self-cleavage
UACGUAGGCGGUUUUCCCCUGAUAGUGCUAAGGGGGCCUGGAAGUAUGGACUGGGCAGAGCUCAACACAGCGUGGCAAAGUGGCUGUGGCUAGACUGCCUCUCUGGAUUCCUCGUCACUCAGCAGGGCGUCUCUGAGAGAAAUGCC [U9C U46A A129G] | 1.67
UACGUAGGCGGUUUUCCCCUGAUAGUGCUAAGGGGGCCUGGAAGUCUGGACUGGGCAGAGCUCAACACAGCGUGGCAAAGUGGCUGUGGCUAGACUGCCUCUCUGGAUUCCUCGUCACUCAGCAAGGCAUCUCUGAGAGAAAUGCC [U9C U46C G125A] | 1.27
UACGUAGGCGGUUUUCCCCUGAUAGUGCUAAGGGGGCCUGGAAGUUAGGACUGGGCAGAGCUCAACACAGCGUGGCAAAGUGGCUGUGGCCAGACUGCCUCUCUGGAUUCCUCGUCACACAGCAGGGCAUCUCUGAGAGAAGUGCC [U9C U47A U91C U119A A142G] | 1.22
UACGUAGGCGGUUUUCCCCUGAUAGUGCUAAGGGGGCCUGGAAGUUAGGACUGGGCAGAGCUCAACACAGCGUGGCAAAGUGGCUGUGGCUAGACUGCCUCUCUGGAUUCCUCGACACUCAGCAGGGCAUCUCAGAGAGAAAUGCC [U9C U47A U115A U134A] | 0.79
UACGUAGGCGGUUUUCCCCUGAUAGUGCUAAGGGGGCCUGGAAGUUCGGACUGGGCAGAGCUCAACACUGCGUGGCAAAGUGGCUGUGGCUAGACUGCCUCUCUGGAUUCCUCGUUACUCAGCAGGGCAUCUCUGAGAGAAAUGCC [U9C U47C A69U C116U] | 0.11
UACGUAGGCGGUUUUCCCCUGAUAGUGCUAAGGGGGCCUGGAAGUUCGGACUGGGCAGAGCUCAACACAGCGUGGCAAUGUGGCUGUGGCUAGACUGCCUCUCUGGAUUCCUCGUCACUCAGCAGGGCAUCUCUGAGAGAGAUGCC [U9C U47C A79U A141G] | 1.54
UACGUAGGCGGUUUUCCCCUGAUAGUGCUAAGGGGGCCUGGAAGUUCGGACUGGGCAGAGCUCAACACAGCGUGGCAAAGUGGCUGUGGCUAGACUGCCUCUCUGGCUUCCUCGUCACUCAGCAGGGCAUCUCUGAGAGAAAUGCC [U9C U47C A107C] | 0
UACGUAGGCGGUUUUCCCCUGAUAGUGCUAAGGGGGCCUGGAAGUUCGGACUGGGCAGAGCUCAACACAGCGUGGCAAAGUGGCUGUGGCUAGACUGCCUCUCUGGAUUCCUCGUCACUCAGCAGGGCAUCUCUGAGUGAAAUGCC [U9C U47C A138U] | 0.85
UACGUAGGCGGUUUUCCCCUGAUAGUGCUAAGGGGGCCUGGAAGUUCGGACUGGGCAGAGCCCAACACAGCGUGGCAAAGUGGCUGUGGCUAGACCGCCUCUCUGGAUUCCUCGUCACUCAGCAGGGCUUCUCUGAGAGAAAUGCC [U9C U47C U62C U96C A129U] | 0
UACGUAGGCGGUUUUCCCCUGAUAGUGCUAAGGGGGCCUGGAAGUUCGGACUGGGCAGAGCUCAACACAGCGUGGCAAAGUGGCUGUGGCUAGACUGCCUCUCUGGAUUCCUCGUCACUCAGCAGGGCACCUCUGAGAGAAAUGCC [U9C U47C U130C] | 0.72
UACGUAGGCGGUUUUCCCCUGAUAGUGCUAAGGGGGCCUGGAAGUUUGGACAGGGCAGAGCUCAACACAGCGUGGCAAAGUGGCUGUGGCUAGACUGCCUCUCUGGAUUCCUCGUCACUCAGCAGGGCAUCUCUGAGAGAAACGCC [U9C U52A U143C] | 0.97
UACGUAGGCGGUUUUCCCCUGAUAGUGCUAAGGGGGCCUGGAAGUUUGGACCGGGCAGAGCUCUACACAGCGUGGCAAAGUGGCUGUGGCUAGACUGCCUCUCUGGAUUCCUCAUCACUCAGCAGGGCAUCUCAGAGAGAAAUGCC [U9C U52C A64U G114A U134A] | 0.32
UACGUAGGCGGUUUUCCCCUGAUAGUGCUAAGGGGGCCUGGAAGUUUGGACCGGGCAGAGCUCAACACAGCGUGGCAAAGUGGCUGUGGCUAGACUGCCUCUCUGGAUUCCUCGUCACUCAGCGGGGCAUCUCUGGGAGAAAUGCC [U9C U52C A124G A136G] | 1.93
UACGUAGGCGGUUUUCCCCUGAUAGUGCUAAGGGGGCCUGGAAGUUUGGACCGGGCAGAGCUCAACACAGCGUGGCAAAGUGGCUGUGGCUAGACUGCCUCUCUGGAUUCCCCGUCACUCAGCAGGGCAUCUCUGAUAGAGAUGCC [U9C U52C U112C G137U A141G] | 1.23
UACGUAGGCGGUUUUCCCCUGAUAGUGCUAAGGGGGCCUGGAAGUUUGGACGGGGCAGAGCUCAACACAGCGUGGCAAAGUGGCUGUGGCUAGACUGCCUCUAUGGAUUCCUCGUCACUCAGCAGGGCAUCUCUGAGAGAAAGGCC [U9C U52G C103A U143G] | 0.84
UACGUAGGCGGUUUUCCCCUGAUAGUGCUAAGGGGGCCUGGAAGUUUGGACUGGGCAGAGCACAACACAGCGUGGCAAAGUGGCUGUGGCUAGACUGCCUCUCUGGAUUCCUCGUCACUCAGCAGGGCAUCUCUGAGAGAGAUGCC [U9C U62A A141G] | 0.16
UACGUAGGCGGUUUUCCCCUGAUAGUGCUAAGGGGGCCUGGAAGUUUGGACUGGGCAGAGCCCUACACAGCGUGGCAAAGUGGCUGCGGCUAGACUGCCCCUCUGGAUUCCUCGUCACUCAGCAGGGCAUCUCUGAGAGAAAUGCC [U9C U62C A64U U87C U100C] | 0.2
UACGUAGGCGGUUUUCCCCUGAUAGUGCUAAGGGGGCCUGGAAGUUUGGACUGGGCAGAGCCCAACACUGCGUGGCAAAGUGGCUGUGGCUAGACUGCCUCUCUGGAUUCCUCGUCACUCAGCAGGGCAUCUCUGAGAGAAAUGCC [U9C U62C A69U] | 0.06
UACGUAGGCGGUUUUCCCCUGAUAGUGCUAAGGGGGCCUGGAAGUUUGGACUGGGCAGAGCCCAACACAGCGUGGCAAAGUGGCUGUGGCUAGACUGCCUCUCUGGAUUCCUCGUCACUCAGCAGGGCAUCUCUGGGAGAAAUGCC [U9C U62C A136G] | 0.05
UACGUAGGCGGUUUUCCCCUGAUAGUGCUAAGGGGGCCUGGAAGUUUGGACUGGGCAGAGCCCAACACAGCGUGGCAAAGUGGCUGUGGCUAGACUGCCUCUCUGGAUUCCUCGCCACUCAGCAGGGCAUCUCUGAGAGAAAUGCC [U9C U62C U115C] | 0.35

Variant | self-cleavage
UACGUAGGCGGUUUUCCCCUGAUAGUGCUAAGGGGGCCUGGAAGUUUGGACUGGGCAGAGCUCAACACAGCGUGGCAAAGAGGCUGUGGCUAGACUGCCUCUCUGGAUUCCUCGUCACUCAGCAGGGCAUCUCUGAGAGAAGUGCC [U9C U81A A142G] | 2.5
UACGUAGGCGGUUUUCCCCUGAUAGUGCUAAGGGGGCCUGGAAGUUUGGACUGGGCAGAGCUCAACACAGCGUGGCAAAGGGGCUGUGGCUAGACUGCCUCUCUGGAUUCCUUGUCACUCAGCAGGGCAUCUCUGAGAGAAAUGCC [U9C U81G C113U] | 1.09
UACGUAGGCGGUUUUCCCCUGAUAGUGCUAAGGGGGCCUGGAAGUUUGGACUGGGCAGAGCUCAACACAGCGUGGCAAAGUGGCAGUGGCUAGACUGCCUCUCUGGAUCCCUCGUCACUCAGCAGGGCAUCUCCGAGAGAAAUGCC [U9C U85A U109C U134C] | 0.05
UACGUAGGCGGUUUUCCCCUGAUAGUGCUAAGGGGGCCUGGAAGUUUGGACUGGGCAGAGCUCAACACAGCGUGGCAAAGUGGCCGUGGCUAGACUGCCUCUCUGGAUUCCUCGUCACUCAGCAGGGCAUCUCUGAGAGGAAUGCC [U9C U85C A140G] | 1.02
UACGUAGGCGGUUUUCCCCUGAUAGUGCUAAGGGGGCCUGGAAGUUUGGACUGGGCAGAGCUCAACACAGCGUGGCAAAGUGGCCGUGGCUAGACAGCCUCUCUGGAUUCCUCGUCACUCAGCAGGGCAUCUCUGAGAGAAAUGCC [U9C U85C U96A] | 0.13
UACGUAGGCGGUUUUCCCCUGAUAGUGCUAAGGGGGCCUGGAAGUUUGGACUGGGCAGAGCUCAACACAGCGUGGCAAAGUGGCGGUGGCUAGACUGCCUCUCUGGAUUCCUCGUCACUCAGCAGGGCAUCUCUGAGAGAAGUGCC [U9C U85G A142G] | 0.14
UACGUAGGCGGUUUUCCCCUGAUAGUGCUAAGGGGGCCUGGAAGUUUGGACUGGGCAGAGCUCAACACAGCGUGGCAAAGUGGCUGAGGCUAGACUGCUUCUCUGGAUUCCUCGUCACUCAGCAGGGCACCUCUGAGAGGAGUGCC [U9C U87A C99U U130C A140G A142G] | 0.12
UACGUAGGCGGUUUUCCCCUGAUAGUGCUAAGGGGGCCUGGAAGUUUGGACUGGGCAGAGCUCAACACAGCGUGGCAAAGUGGCUGUGGCAGGACUGCCUCUCUGGAUUCCUCGUCACUCAGCAGGGCAUCUCUGGGAGAAAUGCC [U9C U91A A92G A136G] | 0.08
UACGUAGGCGGUUUUCCCCUGAUAGUGCUAAGGGGGCCUGGAAGUUUGGACUGGGCAGAGCUCAACACAGCGUGGCAAAGUGGCUGUGGCUAGACAGCCUCUCUGGAUUCCCCGUCACUCAGCAGGGCAUCUCUGAGAGAAGUGCC [U9C U96A U112C A142G] | 0
UACGUAGGCGGUUUUCCCCUGAUAGUGCUAAGGGGGCCUGGAAGUUUGGACUGGGCAGAGCUCAACACAGCGUGGCAAAGUGGCUGUGGCUAGACUGCCCCUCUGGAUUCCUCGCCACUCAGCAGGGCAUCUCUGAGAGAAAUGCC [U9C U100C U115C] | 2.3
UACGUAGGCGGUUUUCCCCUGAUAGUGCUAAGGGGGCCUGGAAGUUUGGACUGGGCAGAGCUCAACACAGCGUGGCAAAGUGGCUGUGGCUAGACUGCCUCUCAGGAUCCCUCGUCACUCAGCGGGGCAUCUCUGAGAGAAAUGCC [U9C U104A U109C A124G] | 0.73
UACGUAGGCGGUUUUCCCCUGAUAGUGCUAAGGGGGCCUGGAAGUUUGGACUGGGCAGAGCUCAACACAGCGUGGCAAAGUGGCUGUGGCUAGACUGCCUCUCAGGAUUCCACGUCACUCAGCAGGGCAUCUCUGAGAGAAAUGCC [U9C U104A U112A] | 1.53
UACGUAGGGGGUUUUCCCCUGGUAGUGCUAAGGGGGCCUGGAAGUUUGGACUGGGCAGAGCUCAACACAGCGUGGCAAAGUGGCUGUGGCUAGACUGCCUCUCUGGAUUCCUCGUCACUCAGCGGGGCAUCUCUGAGAGAAAUGCC [U9G A22G A124G] | 0.42
UACGUAGGGGGUUUUCCCCUGGUAGUGCUAAGGGGGCCUGGAAGUUUGGACUGGGCAGAGCUCAACACAGUGUGGCAAAGUGGCUGUGGCUAGACUGCCUCUCUGGAUUCCUCGUCACUCAGCAGGGCAUCUCUGAGAGAAAUGCC [U9G A22G C71U] | 0.89
UACGUAGGGGGUUUUCCCCUGAUAGUGCUAAGGGGGCCUGGGAGUUUGGACUGGGCAGAGCUCAACACAGCGUGGCAAAGUGGCUGUGGCUAGACUGCCUCUCUGGAUUCCUCGUCACCCAGCAGGGCAUCUCUGAGAGAAAUGCC [U9G A42G U119C] | 0.86
UACGUAGGGGGUUUUCCCCUGAUAGUGCUAAGGGGGCCUGGUAGUUUGGACUGGGCAGAGCUCAACACAGCGUGGCAAAGUGGCUGUGGCUAGACUGCCUCUAUGGAUUCCUCGUCACUCAGCAUGGCAUCUCUGAGAGAAAUGCC [U9G A42U C103A G125U] | 0.73
UACGUAGGGGGUUUUCCCCUGAUAGUGCUAAGGGGGCCUGGAGGUUUGGACUGGGCAGAGCUCAAUACAGCGUGGCAAAGUGGCUGUGGCUAGACUGCCUCUCUGGAUUCCUCGUCACUCAGCAGGGCAUCUCUGAGAGAAAUGCC [U9G A43G C66U] | 0.22
UACGUAGGGGGUUUUCCCCUGAUAGUGCUAAGGGGGCCUGGAAGUUUGGACUGGGCAGGGCUCAACUCAGCGUGGCAAAGUGGCUGUGGCUAGACUGCCUCUCUGGAUUCCUCGUCACCCAGCAGGGCAUCUCUGAGAGAAAUGCC [U9G A59G A67U U119C] | 0
UACGUAGGGGGUUUUCCCCUGAUAGUGCUAAGGGGGCCUGGAAGUUUGGACUGGGCAGGGCUCAACACAGCGUGGCAAAGUGGCUGUGGCUAGACUGCCUCUCUGGAUUCCUCGUCACUCAGCAGGGCAUCUCAGAGAGAAACGCC [U9G A59G U134A U143C] | 0.18
